Tests used:
Assay in all cases: cell-based or functional assay
[1] = target: T1, high affinity IL-2 receptor IL-2Rαβγ on human PHA-blasts (activated T cells) (human, UniProt P01589 22-272; P14784 27-551; P31785 23-369)
T1 sequence (looked up) 1: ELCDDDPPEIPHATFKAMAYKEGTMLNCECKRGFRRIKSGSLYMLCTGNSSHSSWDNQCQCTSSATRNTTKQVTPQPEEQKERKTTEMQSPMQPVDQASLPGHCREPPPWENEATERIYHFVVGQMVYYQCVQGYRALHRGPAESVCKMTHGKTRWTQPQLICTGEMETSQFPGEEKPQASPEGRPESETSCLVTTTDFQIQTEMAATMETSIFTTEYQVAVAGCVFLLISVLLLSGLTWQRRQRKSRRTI
T1 sequence (looked up) 2: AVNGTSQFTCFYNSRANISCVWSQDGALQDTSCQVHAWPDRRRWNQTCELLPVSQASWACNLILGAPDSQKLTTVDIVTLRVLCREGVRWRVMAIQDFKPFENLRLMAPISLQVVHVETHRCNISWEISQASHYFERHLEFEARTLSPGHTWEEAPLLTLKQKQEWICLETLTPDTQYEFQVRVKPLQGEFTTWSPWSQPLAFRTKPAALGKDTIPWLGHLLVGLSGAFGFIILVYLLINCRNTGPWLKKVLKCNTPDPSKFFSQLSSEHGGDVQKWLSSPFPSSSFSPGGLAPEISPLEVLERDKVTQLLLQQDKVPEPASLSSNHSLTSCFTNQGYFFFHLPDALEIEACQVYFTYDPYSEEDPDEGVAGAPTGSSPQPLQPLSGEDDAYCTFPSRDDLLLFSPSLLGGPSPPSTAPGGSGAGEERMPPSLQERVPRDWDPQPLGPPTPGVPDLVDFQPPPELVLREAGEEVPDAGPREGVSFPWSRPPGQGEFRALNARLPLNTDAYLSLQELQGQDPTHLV
T1 sequence (looked up) 3: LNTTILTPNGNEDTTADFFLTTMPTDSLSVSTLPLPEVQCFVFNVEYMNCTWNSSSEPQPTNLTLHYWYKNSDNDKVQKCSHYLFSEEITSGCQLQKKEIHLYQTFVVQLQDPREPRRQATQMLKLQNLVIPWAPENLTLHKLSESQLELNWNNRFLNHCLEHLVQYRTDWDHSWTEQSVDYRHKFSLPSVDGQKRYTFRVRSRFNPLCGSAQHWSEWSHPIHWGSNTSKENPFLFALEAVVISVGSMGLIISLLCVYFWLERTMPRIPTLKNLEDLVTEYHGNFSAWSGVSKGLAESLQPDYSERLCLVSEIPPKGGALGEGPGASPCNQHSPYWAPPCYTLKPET

[2] = target: T2, intermediate affinity IL-2 receptor IL-2Rβγ on human NK cells (human, UniProt P14784 27-551; P31785 23-369)
T2 sequence (looked up) 1: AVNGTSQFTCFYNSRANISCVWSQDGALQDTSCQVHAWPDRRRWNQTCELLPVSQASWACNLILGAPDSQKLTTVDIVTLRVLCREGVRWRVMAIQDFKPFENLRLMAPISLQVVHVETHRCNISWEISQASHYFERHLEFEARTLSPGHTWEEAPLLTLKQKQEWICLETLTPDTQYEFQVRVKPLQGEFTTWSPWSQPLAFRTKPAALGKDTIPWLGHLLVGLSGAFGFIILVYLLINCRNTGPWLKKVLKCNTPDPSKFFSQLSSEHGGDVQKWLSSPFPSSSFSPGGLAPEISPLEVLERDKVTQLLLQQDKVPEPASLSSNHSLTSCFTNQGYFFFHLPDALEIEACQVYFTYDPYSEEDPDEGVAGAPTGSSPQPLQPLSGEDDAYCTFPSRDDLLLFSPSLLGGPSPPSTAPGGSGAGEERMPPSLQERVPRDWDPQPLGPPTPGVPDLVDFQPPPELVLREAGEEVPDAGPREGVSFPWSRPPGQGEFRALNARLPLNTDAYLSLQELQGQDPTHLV
T2 sequence (looked up) 2: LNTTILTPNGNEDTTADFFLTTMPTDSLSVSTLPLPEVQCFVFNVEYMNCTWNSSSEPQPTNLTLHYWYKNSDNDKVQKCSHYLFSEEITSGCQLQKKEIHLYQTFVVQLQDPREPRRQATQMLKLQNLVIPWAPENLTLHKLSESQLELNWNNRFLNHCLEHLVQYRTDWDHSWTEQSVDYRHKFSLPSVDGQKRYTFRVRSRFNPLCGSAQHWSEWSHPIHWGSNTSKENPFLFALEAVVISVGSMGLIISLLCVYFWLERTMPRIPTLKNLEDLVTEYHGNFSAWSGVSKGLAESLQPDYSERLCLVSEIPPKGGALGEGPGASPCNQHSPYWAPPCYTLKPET

[3] = target: T1, high affinity IL-2 receptor IL-2Rαβγ on …; remark: listed apart in the source
[4] = target: T2, intermediate affinity IL-2 receptor …; remark: listed apart in the source

B1: human IL-2 mutein D20H (ligand)
chain: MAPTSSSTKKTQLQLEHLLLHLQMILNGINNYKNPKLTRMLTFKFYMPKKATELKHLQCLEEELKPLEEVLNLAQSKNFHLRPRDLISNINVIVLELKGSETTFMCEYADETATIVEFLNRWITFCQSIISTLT
B1 was tested, and the “EC50, 50% maximal proliferation, T cell assay (FIG. 1A)” value [1] was ~0.2 nM, the “EC50, 50% maximal proliferation, NK cell assay (FIG. 1B)” value [2] was > 10000 nM and the “relative activity, T cell (PHA-blast proliferation)” value [3] was 0.371 relative to wt IL-2 (EC50). The “relative activity, NK cell (NK cell proliferation)” value [4] was 9e-05 relative to wt IL-2 (EC50).

B2: wild-type human IL-2 (ligand)
chain: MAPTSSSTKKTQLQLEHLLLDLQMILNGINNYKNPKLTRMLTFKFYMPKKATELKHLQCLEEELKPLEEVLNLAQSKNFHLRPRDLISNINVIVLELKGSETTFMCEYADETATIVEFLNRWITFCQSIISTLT
In the case of B2, the “EC50, 50% maximal proliferation, T cell assay (FIG. 1A)” value [1] is reported as ~0.15 nM, the “EC50, 50% maximal proliferation, T cell assay (FIG. 5A)” value [1] is reported as ~0.15 nM and the “EC50, 50% maximal proliferation, NK cell assay (FIG. 1B)” value [2] is reported as ~0.1 nM. For the same binder, the “EC50, 50% maximal proliferation, NK cell assay (FIG. 5B)” value [2] was ~0.1 nM, the “relative activity, T cell (PHA-blast proliferation)” value [3] was 1 relative to wt IL-2 (EC50) and the “relative activity, NK cell (NK cell proliferation)” value [4] was 1 relative to wt IL-2 (EC50).

— patent US20040175357A1 (Bayer, published 2004)
